# For some assays here: The strong results were mostly taken out for another list; the other results follow. The list shows a part of the results, in another mix than the full data.
# Key:
# [1] = target: T1, Inhibitor of nuclear factor kappa-B kinase subunit epsilon (Homo sapiens) (UniProt Q14164); details: at 1 µM;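 further: reported values are averaged percent inhibition figures against human IKKε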
# T1 sequence (whole entry): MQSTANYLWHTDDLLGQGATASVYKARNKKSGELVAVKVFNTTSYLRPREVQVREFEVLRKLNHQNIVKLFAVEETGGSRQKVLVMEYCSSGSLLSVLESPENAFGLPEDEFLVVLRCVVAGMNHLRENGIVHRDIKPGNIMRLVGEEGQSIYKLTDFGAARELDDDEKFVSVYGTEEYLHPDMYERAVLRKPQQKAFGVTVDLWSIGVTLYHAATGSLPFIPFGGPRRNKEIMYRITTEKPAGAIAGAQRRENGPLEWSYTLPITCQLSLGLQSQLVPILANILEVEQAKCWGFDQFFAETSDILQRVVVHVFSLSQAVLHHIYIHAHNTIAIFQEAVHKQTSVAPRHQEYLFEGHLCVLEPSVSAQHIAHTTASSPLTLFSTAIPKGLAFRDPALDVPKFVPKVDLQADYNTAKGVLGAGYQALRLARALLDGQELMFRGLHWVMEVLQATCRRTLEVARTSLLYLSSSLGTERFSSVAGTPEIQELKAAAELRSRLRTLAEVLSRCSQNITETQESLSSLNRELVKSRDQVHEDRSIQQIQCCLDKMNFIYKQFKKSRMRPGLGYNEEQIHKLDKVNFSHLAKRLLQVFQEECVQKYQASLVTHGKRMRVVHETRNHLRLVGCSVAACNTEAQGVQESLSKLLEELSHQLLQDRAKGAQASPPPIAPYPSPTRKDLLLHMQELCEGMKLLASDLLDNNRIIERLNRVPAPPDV
# [2] = target: T2, Serine/threonine-protein kinase Nek1 (Homo sapiens) (UniProt Q96PY6); details: at 0.1 µM
# T2 sequence (whole entry): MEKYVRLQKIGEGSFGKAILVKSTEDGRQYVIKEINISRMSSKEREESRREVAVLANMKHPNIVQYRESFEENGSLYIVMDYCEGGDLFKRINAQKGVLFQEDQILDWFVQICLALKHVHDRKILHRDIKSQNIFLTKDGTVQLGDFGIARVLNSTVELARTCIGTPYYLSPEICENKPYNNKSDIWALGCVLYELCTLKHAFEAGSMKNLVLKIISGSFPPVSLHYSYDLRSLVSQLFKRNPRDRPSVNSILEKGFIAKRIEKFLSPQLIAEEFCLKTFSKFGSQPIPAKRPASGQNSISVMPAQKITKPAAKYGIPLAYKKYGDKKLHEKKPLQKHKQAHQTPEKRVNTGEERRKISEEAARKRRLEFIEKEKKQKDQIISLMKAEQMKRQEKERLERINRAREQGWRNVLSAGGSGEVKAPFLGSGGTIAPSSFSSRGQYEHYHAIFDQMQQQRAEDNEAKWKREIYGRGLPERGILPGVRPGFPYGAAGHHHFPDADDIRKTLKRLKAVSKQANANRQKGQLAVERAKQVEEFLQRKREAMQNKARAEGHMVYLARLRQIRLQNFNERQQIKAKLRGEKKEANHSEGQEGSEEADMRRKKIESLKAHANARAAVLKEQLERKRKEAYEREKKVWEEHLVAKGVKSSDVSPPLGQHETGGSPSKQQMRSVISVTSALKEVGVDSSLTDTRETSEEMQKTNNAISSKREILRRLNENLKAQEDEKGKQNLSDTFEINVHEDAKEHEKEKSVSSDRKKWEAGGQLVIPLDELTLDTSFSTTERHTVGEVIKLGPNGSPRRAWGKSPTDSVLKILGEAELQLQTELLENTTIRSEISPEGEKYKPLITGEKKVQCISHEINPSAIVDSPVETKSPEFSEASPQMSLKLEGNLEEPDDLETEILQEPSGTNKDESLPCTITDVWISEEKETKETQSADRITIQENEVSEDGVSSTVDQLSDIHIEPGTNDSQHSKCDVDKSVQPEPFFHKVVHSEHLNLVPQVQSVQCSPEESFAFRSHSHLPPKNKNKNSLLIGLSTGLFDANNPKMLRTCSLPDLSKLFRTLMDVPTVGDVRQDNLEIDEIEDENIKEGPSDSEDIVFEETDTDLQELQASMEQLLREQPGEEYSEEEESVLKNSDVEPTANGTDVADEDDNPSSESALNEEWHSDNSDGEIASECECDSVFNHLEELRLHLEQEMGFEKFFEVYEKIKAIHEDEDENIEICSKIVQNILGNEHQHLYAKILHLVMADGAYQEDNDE
# [3] = target: T2, Serine/threonine-protein kinase Nek1 (Homo sapiens); details: at 1 µM
# [4] = target: T3, Serine/threonine-protein kinase Nek2 (Homo sapiens) (UniProt P51955); details: at 0.1 µM
# T3 sequence (whole entry): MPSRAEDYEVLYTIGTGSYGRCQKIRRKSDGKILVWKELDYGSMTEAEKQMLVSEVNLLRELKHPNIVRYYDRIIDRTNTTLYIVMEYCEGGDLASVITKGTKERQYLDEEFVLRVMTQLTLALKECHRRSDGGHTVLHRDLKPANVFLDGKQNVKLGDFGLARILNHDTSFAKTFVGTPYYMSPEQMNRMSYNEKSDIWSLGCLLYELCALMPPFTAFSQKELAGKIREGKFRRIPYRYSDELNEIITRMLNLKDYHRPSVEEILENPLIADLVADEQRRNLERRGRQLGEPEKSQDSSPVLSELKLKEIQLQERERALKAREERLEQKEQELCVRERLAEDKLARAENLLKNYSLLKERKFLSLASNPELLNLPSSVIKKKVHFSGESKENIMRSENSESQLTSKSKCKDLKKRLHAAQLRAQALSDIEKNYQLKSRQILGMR
# [5] = target: T3, Serine/threonine-protein kinase Nek2 (Homo sapiens); details: at 1 µM
# [6] = target: T4, Serine/threonine-protein kinase Nek6 (Homo sapiens) (UniProt Q9HC98); details: at 0.1 µM
# T4 sequence (whole entry): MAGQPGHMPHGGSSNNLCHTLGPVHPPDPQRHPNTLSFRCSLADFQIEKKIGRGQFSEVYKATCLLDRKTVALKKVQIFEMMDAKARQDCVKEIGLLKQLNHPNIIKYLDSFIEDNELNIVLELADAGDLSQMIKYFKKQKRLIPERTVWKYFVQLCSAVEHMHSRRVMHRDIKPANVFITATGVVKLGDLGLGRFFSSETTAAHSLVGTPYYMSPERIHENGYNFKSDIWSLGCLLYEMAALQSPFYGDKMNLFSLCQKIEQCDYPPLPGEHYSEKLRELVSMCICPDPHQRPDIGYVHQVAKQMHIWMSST
# [7] = target: T4, Serine/threonine-protein kinase Nek6 (Homo sapiens); details: at 1 µM
# [8] = target: Serine/threonine-protein kinase Nek7 (Homo sapiens) (UniProt Q8TDX7); details: at 0.1 µM
# [9] = target: Serine/threonine-protein kinase Nek7 (Homo sapiens) (UniProt Q8TDX7); details: at 1 µM
# [10] = target: T5, Serine/threonine-protein kinase Nek9 (Homo sapiens) (UniProt Q8TD19); details: at 0.1 µM
# T5 sequence (whole entry): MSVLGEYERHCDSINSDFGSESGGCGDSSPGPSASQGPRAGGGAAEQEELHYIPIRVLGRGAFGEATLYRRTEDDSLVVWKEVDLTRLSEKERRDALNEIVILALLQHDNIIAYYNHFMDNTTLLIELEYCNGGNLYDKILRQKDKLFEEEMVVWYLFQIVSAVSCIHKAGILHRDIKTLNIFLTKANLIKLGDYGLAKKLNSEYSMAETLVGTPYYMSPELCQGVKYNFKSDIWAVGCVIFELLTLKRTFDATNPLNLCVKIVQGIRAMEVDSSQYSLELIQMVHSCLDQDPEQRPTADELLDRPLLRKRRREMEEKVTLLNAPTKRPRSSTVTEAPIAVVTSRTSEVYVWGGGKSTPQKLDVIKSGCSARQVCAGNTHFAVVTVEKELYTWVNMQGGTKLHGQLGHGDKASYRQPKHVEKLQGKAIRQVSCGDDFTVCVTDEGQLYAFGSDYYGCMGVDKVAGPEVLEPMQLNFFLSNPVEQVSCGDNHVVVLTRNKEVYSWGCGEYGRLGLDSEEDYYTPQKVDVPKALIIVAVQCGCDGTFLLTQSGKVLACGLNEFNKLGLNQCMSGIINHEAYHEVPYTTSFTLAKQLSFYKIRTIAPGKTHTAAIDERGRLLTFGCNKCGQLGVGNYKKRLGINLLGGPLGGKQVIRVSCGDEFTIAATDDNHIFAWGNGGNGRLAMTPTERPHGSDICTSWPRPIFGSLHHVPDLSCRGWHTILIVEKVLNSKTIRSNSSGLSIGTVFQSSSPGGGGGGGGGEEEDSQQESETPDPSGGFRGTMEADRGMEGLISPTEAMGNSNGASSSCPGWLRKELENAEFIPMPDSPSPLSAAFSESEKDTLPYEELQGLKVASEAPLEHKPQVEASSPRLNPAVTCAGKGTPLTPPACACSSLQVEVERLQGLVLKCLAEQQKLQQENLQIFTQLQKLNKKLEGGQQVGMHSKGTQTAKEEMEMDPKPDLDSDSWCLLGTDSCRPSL
# [11] = target: T5, Serine/threonine-protein kinase Nek9 (Homo sapiens); details: at 1 µM
# [12] = target: Serine/threonine-protein kinase PLK1 (Homo sapiens) (UniProt P53350); details: at 0.1 µM
# [13] = target: Serine/threonine-protein kinase PLK1 (Homo sapiens) (UniProt P53350); details: at 1 µM
# [14] = target: T6, Dual specificity protein kinase TTK (Homo sapiens) (UniProt P33981); details: at 0.1 µM
# T6 sequence (whole entry): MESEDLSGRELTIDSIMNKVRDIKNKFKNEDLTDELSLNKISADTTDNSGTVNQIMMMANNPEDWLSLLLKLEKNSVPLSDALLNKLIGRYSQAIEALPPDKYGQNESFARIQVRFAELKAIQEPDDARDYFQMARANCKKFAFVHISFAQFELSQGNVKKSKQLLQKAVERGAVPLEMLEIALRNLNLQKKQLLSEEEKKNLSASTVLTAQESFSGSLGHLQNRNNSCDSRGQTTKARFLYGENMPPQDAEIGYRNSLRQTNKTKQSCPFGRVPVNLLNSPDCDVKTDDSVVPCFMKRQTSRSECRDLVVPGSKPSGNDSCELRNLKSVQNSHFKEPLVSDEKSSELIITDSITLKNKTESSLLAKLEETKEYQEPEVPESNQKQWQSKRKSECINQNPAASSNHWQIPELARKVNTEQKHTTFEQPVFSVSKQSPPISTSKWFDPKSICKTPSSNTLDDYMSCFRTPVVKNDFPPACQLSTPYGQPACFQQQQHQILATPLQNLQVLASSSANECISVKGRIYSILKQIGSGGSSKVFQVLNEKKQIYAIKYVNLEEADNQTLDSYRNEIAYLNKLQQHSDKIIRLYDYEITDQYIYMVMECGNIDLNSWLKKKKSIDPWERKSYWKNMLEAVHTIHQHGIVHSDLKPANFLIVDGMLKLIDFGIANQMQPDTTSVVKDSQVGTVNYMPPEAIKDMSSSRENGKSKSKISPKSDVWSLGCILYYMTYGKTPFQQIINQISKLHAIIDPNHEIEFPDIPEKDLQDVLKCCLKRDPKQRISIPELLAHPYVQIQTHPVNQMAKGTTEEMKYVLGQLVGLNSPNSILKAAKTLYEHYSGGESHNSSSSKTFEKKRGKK
# [15] = test system: T7, Receptor-type tyrosine-protein kinase FLT3 (Homo sapiens), P36888 [D835Y]; details: at 1 µM
# T7 sequence (whole entry): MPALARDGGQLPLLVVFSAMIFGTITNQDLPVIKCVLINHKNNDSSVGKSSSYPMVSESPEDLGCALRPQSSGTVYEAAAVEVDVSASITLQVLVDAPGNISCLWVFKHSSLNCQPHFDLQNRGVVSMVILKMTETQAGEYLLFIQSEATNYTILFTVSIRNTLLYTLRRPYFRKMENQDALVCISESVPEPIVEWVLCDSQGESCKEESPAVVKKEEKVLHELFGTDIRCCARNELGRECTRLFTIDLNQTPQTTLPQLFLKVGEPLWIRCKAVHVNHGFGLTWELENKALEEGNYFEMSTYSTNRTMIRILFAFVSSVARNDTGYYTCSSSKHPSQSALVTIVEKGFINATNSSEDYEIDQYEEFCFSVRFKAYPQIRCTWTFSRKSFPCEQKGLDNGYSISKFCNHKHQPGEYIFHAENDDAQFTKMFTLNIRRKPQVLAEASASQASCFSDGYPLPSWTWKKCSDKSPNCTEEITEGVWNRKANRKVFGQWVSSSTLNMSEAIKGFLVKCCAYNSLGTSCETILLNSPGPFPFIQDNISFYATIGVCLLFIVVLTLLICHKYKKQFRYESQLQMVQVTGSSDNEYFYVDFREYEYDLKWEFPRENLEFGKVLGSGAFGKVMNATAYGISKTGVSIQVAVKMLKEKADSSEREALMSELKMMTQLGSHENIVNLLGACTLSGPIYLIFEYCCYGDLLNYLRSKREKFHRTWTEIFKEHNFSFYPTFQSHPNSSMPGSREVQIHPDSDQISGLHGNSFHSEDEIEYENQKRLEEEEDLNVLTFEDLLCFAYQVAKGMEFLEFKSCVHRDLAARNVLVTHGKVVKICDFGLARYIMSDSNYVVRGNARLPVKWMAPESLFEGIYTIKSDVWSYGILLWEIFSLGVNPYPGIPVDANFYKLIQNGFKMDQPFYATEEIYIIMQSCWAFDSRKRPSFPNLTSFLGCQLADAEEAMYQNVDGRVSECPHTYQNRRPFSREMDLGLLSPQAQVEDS
# [16] = target: Vascular endothelial growth factor receptor 3 (Homo sapiens) (UniProt P35916); details: at 0.1 µM
# [17] = target: Vascular endothelial growth factor receptor 3 (Homo sapiens) (UniProt P35916); details: at 1 µM
# [18] = target: Macrophage colony-stimulating factor 1 receptor (Homo sapiens) (UniProt P07333); details: at 0.1 µM
# [19] = target: Macrophage colony-stimulating factor 1 receptor (Homo sapiens) (UniProt P07333); details: at 1 µM
# [20] = target: Tyrosine-protein kinase Fyn (Homo sapiens) (UniProt P06241); details: at 0.1 µM
# Sequence of UniProt P06241 (P06241 whole entry, looked up): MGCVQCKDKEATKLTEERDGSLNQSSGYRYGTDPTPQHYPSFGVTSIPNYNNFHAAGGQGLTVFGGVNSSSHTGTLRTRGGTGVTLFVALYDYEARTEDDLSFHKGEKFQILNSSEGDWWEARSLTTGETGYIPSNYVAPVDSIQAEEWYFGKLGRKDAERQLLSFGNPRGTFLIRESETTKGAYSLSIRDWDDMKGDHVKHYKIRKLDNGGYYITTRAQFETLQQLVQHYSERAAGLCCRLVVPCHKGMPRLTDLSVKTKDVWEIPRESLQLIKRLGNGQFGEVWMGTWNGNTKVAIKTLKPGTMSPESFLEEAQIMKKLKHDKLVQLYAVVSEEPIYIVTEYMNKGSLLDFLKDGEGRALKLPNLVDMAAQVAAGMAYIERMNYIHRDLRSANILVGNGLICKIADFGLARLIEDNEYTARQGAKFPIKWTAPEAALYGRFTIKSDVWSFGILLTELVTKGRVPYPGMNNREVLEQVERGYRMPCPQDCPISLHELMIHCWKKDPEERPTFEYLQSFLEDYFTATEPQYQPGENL
# Sequence of UniProt Q8TDX7 (Q8TDX7 whole entry, looked up): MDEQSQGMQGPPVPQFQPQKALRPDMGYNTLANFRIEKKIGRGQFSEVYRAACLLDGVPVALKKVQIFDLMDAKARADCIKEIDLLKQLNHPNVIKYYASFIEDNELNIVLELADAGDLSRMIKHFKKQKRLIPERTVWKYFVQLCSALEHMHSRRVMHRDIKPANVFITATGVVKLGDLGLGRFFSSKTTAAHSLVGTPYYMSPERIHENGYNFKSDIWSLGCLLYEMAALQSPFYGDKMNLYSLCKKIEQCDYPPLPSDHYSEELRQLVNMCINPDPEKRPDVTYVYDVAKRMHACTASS
# Sequence of UniProt P53350 (P53350 whole entry): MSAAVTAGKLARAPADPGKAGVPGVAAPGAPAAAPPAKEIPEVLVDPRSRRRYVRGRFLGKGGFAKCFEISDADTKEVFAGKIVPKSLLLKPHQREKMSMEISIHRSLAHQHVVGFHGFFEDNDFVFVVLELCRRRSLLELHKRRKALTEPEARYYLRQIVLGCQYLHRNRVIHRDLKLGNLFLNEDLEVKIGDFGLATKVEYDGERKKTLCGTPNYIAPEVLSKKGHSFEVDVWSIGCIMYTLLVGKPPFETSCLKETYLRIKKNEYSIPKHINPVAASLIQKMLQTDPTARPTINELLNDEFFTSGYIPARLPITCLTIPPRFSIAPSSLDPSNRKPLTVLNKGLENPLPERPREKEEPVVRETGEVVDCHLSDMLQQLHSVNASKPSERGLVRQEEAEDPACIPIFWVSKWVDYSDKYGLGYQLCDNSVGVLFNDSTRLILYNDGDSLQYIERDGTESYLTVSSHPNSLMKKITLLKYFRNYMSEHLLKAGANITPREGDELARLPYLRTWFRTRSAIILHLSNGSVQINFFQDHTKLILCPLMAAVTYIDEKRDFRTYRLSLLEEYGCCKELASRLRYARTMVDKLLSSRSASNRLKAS
# Sequence of UniProt P35916 (P35916 whole entry): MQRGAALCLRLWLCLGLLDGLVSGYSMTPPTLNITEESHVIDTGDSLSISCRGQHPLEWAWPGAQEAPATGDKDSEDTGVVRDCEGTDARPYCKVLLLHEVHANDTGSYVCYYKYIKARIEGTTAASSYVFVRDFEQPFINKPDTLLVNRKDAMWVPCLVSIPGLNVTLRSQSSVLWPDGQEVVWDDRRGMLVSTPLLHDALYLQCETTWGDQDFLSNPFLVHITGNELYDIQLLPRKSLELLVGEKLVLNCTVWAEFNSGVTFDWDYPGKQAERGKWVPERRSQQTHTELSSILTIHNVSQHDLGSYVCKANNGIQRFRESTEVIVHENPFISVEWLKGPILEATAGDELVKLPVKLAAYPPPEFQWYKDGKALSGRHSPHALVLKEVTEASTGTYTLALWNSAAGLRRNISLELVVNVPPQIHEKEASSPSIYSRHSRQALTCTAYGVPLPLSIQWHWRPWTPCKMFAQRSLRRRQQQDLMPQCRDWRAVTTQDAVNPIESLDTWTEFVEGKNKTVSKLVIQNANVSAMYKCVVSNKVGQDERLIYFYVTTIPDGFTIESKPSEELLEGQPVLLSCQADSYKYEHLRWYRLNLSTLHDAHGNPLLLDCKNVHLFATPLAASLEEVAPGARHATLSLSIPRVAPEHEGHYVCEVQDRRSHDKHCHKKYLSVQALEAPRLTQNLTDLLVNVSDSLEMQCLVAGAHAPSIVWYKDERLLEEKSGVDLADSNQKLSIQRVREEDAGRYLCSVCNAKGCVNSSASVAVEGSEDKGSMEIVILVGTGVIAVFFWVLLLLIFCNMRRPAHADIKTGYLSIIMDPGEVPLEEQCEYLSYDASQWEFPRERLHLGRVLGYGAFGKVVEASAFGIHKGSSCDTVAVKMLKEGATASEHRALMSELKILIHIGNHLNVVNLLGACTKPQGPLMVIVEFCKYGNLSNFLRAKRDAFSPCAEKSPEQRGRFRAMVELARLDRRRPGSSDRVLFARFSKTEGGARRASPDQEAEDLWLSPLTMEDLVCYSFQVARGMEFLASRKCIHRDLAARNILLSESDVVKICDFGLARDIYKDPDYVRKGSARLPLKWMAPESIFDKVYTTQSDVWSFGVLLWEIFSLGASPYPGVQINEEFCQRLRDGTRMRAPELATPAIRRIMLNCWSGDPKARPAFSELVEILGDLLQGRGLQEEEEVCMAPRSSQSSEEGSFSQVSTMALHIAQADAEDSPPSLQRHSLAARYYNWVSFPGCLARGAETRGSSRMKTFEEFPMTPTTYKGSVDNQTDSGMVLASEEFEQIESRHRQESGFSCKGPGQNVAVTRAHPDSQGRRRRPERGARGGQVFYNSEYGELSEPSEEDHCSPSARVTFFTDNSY
# Sequence of UniProt P07333 (P07333 whole entry): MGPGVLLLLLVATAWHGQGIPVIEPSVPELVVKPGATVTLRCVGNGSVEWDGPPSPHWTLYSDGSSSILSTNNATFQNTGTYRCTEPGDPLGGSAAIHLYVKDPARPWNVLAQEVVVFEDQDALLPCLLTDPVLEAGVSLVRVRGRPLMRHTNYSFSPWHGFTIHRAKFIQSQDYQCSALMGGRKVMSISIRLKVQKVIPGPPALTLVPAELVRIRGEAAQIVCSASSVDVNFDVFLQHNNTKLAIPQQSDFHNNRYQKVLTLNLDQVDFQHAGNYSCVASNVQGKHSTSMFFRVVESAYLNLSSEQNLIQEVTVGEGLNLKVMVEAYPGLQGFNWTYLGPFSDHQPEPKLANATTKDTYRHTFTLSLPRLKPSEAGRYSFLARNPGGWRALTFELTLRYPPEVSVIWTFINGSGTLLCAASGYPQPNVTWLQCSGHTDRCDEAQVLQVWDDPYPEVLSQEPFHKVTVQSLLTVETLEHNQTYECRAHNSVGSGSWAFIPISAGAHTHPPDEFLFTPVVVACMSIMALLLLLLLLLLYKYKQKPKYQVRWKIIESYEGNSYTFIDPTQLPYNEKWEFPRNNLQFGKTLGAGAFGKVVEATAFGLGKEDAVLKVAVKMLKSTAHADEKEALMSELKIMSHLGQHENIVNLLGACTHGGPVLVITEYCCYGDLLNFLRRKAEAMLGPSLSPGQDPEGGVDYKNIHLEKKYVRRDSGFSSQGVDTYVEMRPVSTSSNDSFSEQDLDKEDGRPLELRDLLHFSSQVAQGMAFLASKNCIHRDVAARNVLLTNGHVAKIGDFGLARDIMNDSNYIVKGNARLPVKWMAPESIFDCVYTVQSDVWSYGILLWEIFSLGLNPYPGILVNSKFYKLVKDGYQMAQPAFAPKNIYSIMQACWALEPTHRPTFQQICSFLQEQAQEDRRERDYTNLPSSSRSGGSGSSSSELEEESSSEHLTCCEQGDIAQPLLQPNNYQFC
smiles,measurement,setting,value
CC(C)(C)c1ccc(Oc2nccc(-c3c(-c4ccc(F)cc4)ncn3C3CCNCC3)n2)cc1,inhibition,[1],5.67%
same,inhibition,[2],1.58%
same,inhibition,[3],2.93%
same,inhibition,[4],5.08%
same,inhibition,[5],4.19%
same,inhibition,[6],8.9%
same,inhibition,[7],2.85%
same,inhibition,[8],3.54%
same,inhibition,[9],6.77%
same,inhibition,[10],7.57%
same,inhibition,[11],12.6%
same,inhibition,[12],4.97%
same,inhibition,[13],4.16%
same,inhibition,[14],10.3%
same,inhibition,[15],1.76%
same,inhibition,[16],0.78%
same,inhibition,[17],0.42%
same,inhibition,[18],-0.24%
same,inhibition,[19],2.13%
same,inhibition,[20],0.6%
